# Measured values published in PubChem BioAssay AID1671193 (National Center for Advancing Translational Sciences (NCATS), 2021).
# Hit rate of the full screen: of about 150,000 compounds, about 180 (0.12%) were called active. The inconclusive results got no clear call from the source; some entries with a clear call stand among them for comparison. Calls come from the whole dose curve; as a rule, active = well fitted cell-killing curve with a large enough effect; inconclusive = small, poorly fitted or top-dose-only effect, or effect the other way; inactive = flat fitted curve, though single readings scatter. Potencies beside an inconclusive call are fits to weak or partial responses and may not hold up.
# Assay: GF-AFC viability counterscreen for inhibitors of alpha-synuclein gene (SNCA) expression; note: nearly all actives have a fitted effect of over 30% in size;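 for activity change, negative = cytotoxicity: 0% = DMSO-treated cells and -100% = medium-only wells without cells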
# Details: HEK-293-SNCA-luc viability, GF-AFC fluorescence, 24 h; activity change, negative = cytotoxicity: at 57.1 µM (top of the series) unless noted
# Outline: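 HEK-293-SNCA-luc cells (1500/well) plated 24 h, then exposed 24 h to a dilution series; GF-AFC added 30 min at 37C, fluorescence 405/540 nm; normalised to medium-only and DMSO wells, Hill fit.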
# Potency is the fitted concentration of half-maximal effect; tags give direction and shape of the fitted curve.
Compound,Potency,"activity change, negative = cytotoxicity"
O=S(=O)(c1ccc(F)cc1)N(CC(O)Cn1c2ccccc2c2ccccc21)c1ccccc1 (centres undefined),"inconclusive: 39.8 µM [cytotoxic, single point]",–
Cc1ccc(Cl)cc1N1CCN(C(=O)c2cnn(C)c2C2CCN(C(=O)OC(C)(C)C)CC2)CC1,"inconclusive: 39.8 µM [cytotoxic, single point]",–
O=C(Nc1cc2c(cc1C(=O)c1ccccc1Br)OCCO2)c1ccccc1,"inconclusive: 2.51 µM [cytotoxic, single point]",–
CN(C)c1ncc2nc(-c3ccc(F)cc3)c(=O)n(Cc3cccs3)c2n1,"inconclusive: 20 µM [rising, partial curve]",–
COc1ccc(S(=O)(=O)N2CCOC[C@H](Oc3ccc(C(F)(F)F)cn3)C2)cc1,–,inactive: -4.84% [at 87.6 µM]
COCCN1C(=O)[C@H]2CN(CCC(C)C)C[C@H]2C1=O,"inconclusive: 39.8 µM [cytotoxic, single point]",–
O=C(NCc1ccnc2[nH]ccc12)c1ccccn1,–,inactive: 2.85% [at 87.6 µM]
O=C(c1ccccc1)N1CCCN(c2cc(-c3ccc(Cl)cc3)[nH]n2)CC1,–,inactive: -3.94%
N#Cc1cccc(-c2cn3c(n2)N(C(=O)c2cnccn2)CCC3)c1,–,inactive: 1.37%
Cc1cccc(NC(=O)CSc2nnc(NC(=O)Nc3ccccc3)s2)c1C,"inconclusive: 0.251 µM [cytotoxic, full curve, poor fit]",–
COc1ccc(C(=O)N2CCN(C(=O)c3nc4cccnc4n(CCc4ccccc4)c3=O)CC2)cc1,–,inactive: 2.7%
Cc1nc2ncccn2c1C(=O)N[C@H]1[C@H]2CCO[C@H]2[C@@H]1N(C)C,–,inactive: 2.82%
COC(=O)C1(C)c2[nH]c3ccccc3c2CCN1C(=O)CCl (centres undefined),"inconclusive: 33.6 µM [cytotoxic, partial curve, poor fit]",–
COc1nccnc1NC1CCN(C(=O)Cc2ccsc2)CC1,–,inactive: -16.4%
Cc1cc(C)c(S(=O)(=O)NCCc2sc3nc(-c4ccc(F)cc4)nn3c2C)c(C)c1,"inconclusive: 11.2 µM [cytotoxic, partial curve, poor fit]",–
O=C(NCc1ccco1)c1ccc2c(c1)N(Cc1ccccc1)C(=O)c1ccccc1S2,"inconclusive: 25.1 µM [cytotoxic, partial curve, poor fit]",–
COCCCn1c(=N)c(C(=O)NC2CCCC2)cc2c(=O)n3cccc(C)c3nc21,"inconclusive: 2 µM [rising, full curve, poor fit]",–
CN(Cc1ccccc1)C(=O)c1ccnc(-c2nnc3ccc(N(C)c4ccccc4)nn23)c1,–,inactive: -10%
COc1ccccc1-c1ccnc(N[C@H]2CO[C@H]3[C@@H]2OC[C@@H]3NC(=O)c2ccc(C)cc2)n1,–,inactive: -3.41%
O=C(c1ccccc1F)N1CCC(C(=O)N2CCCC(c3nc4ncccc4[nH]3)C2)CC1 (centres undefined),–,inactive: -3.3%
Cc1cc(Nc2cc(CN3CCOCC3)c3nc(C)c(Cc4ccc(Cl)cc4F)n3n2)n[nH]1,"inconclusive: 37.7 µM [cytotoxic, single point]",–
CCOc1ccc(C(=O)Nc2ccc3oc(-c4ccc(C)cc4C)nc3c2)cc1Br,–,inactive: 2.35%

Compound,Potency,"activity change, negative = cytotoxicity"
COCCNC(=O)c1cc(-c2cccc(C(F)(F)F)c2)c2cccn2n1,–,inactive: -1.41%
COc1ccc(CCNC(=O)CN2C(=O)COc3ccc(S(=O)(=O)N4CCCC4)cc32)cc1OC,"inconclusive: 28.2 µM [cytotoxic, single point]",–
NC(=O)c1cnc(N[C@@H]2CCCC[C@H]2N)nc1Nc1cccc(-n2nccn2)c1,"inconclusive: 15 µM [cytotoxic, partial curve]",–
COc1ccc(-n2c(=O)cnc3cnc(Nc4ccccc4)nc32)cc1,"inconclusive: 2.51 µM [cytotoxic, full curve, poor fit]",–
COc1ccccc1OCCNC(=O)c1ccc2c(c1)N(C)C1CCCCN1C2=O (centres undefined),"inconclusive: 8.91 µM [rising, single point]",–
CC(=O)N1CCCC(C(=O)N2CCC(Cc3noc(C)n3)CC2)C1 (centres undefined),–,inactive: 1.73%
C=C(C)C(=O)O[C@H]1C[C@@](C)(O)C2(O)CCC(C)(/C=C3/OC(=O)C(COC)=C31)O2 (some centres undefined),active: 14.7 µM,–
CS(=O)(=O)N1CCC(C2CCN(CC3CC3)C2)CC1 (centres undefined),–,inactive: 10.3%
CCN1CCN(c2ccc(Nc3cc(N(C)C(=O)Nc4c(Cl)c(OC)cc(OC)c4Cl)ncn3)cc2)CC1,"inconclusive: 4.23 µM [cytotoxic, partial curve, poor fit]",–
CC(C)CNC(=O)c1cn2cc(-c3cccc(C(F)(F)F)c3)sc2n1,–,inactive: -24.7%
CN1c2cc(C(=O)NCc3ccc(F)cc3)ccc2C(=O)N2CCCCCC21 (centres undefined),"inconclusive: 3.55 µM [rising, single point]",–
COc1cccc(-c2nc(S(=O)(=O)c3ccccc3)c(N3CCC(C)CC3)o2)c1,"inconclusive: 31.6 µM [cytotoxic, single point]",–
CC(=O)N1CCC(c2nn(-c3ccc(F)cc3)c(=O)[nH]2)CC1,"inconclusive: 11.2 µM [rising, full curve, poor fit]",–
O=C(NCc1ccccc1)c1csc(N2CCN(c3ccc(Cl)cc3)CC2)n1,"inconclusive: 25.1 µM [cytotoxic, single point]",–
CCN1C(=O)CCN(C(=O)NCc2ccc(C)cc2)CC12CCOCC2,"inconclusive: 3.16 µM [cytotoxic, single point]",–
Cc1ccc(C(=O)N2CCC3(CC2)[C@H](O)C[C@@H]3O)cc1N1CCNC1=O,–,inactive: -9.41%
COc1cccc(NC(=O)c2c(-c3cnn(C)c3NCc3ccc(C#N)cc3)noc2C)c1,–,inactive: -5.31%
COC(=O)c1c(-c2ccccc2)c(-c2ccccc2)nn(C)c1=O,"inconclusive: 6.31 µM [cytotoxic, full curve, poor fit]",–
COc1ccccc1C1CC(=O)N(c2cccc(C(F)(F)F)c2)C2=C1C(=O)OC2 (centres undefined),"inconclusive: 28.2 µM [cytotoxic, single point]",–
CN(C)c1cccc(C(=O)NC2CCCN(c3cc(-c4ccc(F)cc4)[nH]n3)C2)c1 (centres undefined),"inconclusive: 39.8 µM [cytotoxic, single point]",–
COc1ccc(-n2c(=O)c3sc4ccccc4c3n(CC(=O)NC3CCCCC3)c2=O)cc1,"inconclusive: 0.891 µM [cytotoxic, full curve, poor fit]",–
COc1cccc(C(=O)NCc2nnc3c(-c4nc(C)no4)cccn23)c1,–,inactive: -11%

Compound,Potency,"activity change, negative = cytotoxicity"
O=S(=O)(c1ccccc1)N1CCCC(Cn2c(C3CC3)nc3cccnc32)C1 (centres undefined),–,inactive: -9.09%
O=C(c1ccccc1F)N1CCCC2(CC(c3cccc(C(F)(F)F)c3)=NO2)C1 (centres undefined),–,inactive: 1.78%
CCOC(=O)C1CCN(C(=O)c2nc3sccn3c2-c2ccc(OC)cc2)CC1,"inconclusive: 7.08 µM [cytotoxic, partial curve, poor fit]",–
Cc1cc(=O)n(CC(=O)Nc2ccc(Br)cc2F)c(N2CCc3ccccc3C2)n1,"inconclusive: 12.6 µM [cytotoxic, partial curve, poor fit]",–
C=C1[C@@H](C)[C@H]2[C@H](Cc3c[nH]c4ccccc34)NC(=O)[C@]23C(=O)/C=C/C(=O)[C@H](O)/C(C)=C\[C@@H](C)C/C=C/[C@H]3[C@@H]1O,"inconclusive: 10.3 µM [cytotoxic, partial curve, poor fit]",–
COCCn1c(=O)c(-c2cc(F)cc(F)c2)nc2cnc(N3CCNCC3)nc21,"inconclusive: 28.2 µM [rising, partial curve]",–
CCOC(=O)c1cc(-c2ccccc2)n(CC(=O)NCc2ccccc2)c1C,"inconclusive: 39.8 µM [cytotoxic, single point]",–
CC(C)c1nc2c(c(-c3ccc(O)cc3)n1)CCN(C(=O)c1ccccc1Cl)CC2,"inconclusive: 6.31 µM [cytotoxic, partial curve, poor fit]",–
Cc1cccc(CN2CCC3(CC2)COCCN3C(=O)OCc2ccccc2)c1,–,inactive: -28.3% [at 87.6 µM]
N#CCCn1c(=O)c(-c2ccc(Cl)cc2)nc2cnc(N3CCOCC3)nc21,"inconclusive: 7.94 µM [rising, partial curve]",–
CCCCNC(=O)CSc1nc2n[nH]c(C)c2c(=N)n1-c1cccc(C)c1,"inconclusive: 44.7 µM [cytotoxic, partial curve, poor fit]",–
CCCOc1ccc(-c2nc3ccc(Br)cc3c(=O)o2)cc1,–,inactive: 24.4%
Cc1ccc(-c2cc3nccc(-c4cc([N+](=O)[O-])ccc4O)n3n2)cc1,"inconclusive: 10 µM [cytotoxic, partial curve, poor fit]",–
COc1ccc(C(=O)N[C@@H]2CCC[C@@H]2C(=O)NCc2c(C)n[nH]c2C)cc1,"inconclusive: 0.794 µM [cytotoxic, full curve, poor fit]",–
CC(=O)Nc1ccc(CN2C(=O)OC3(CCN(Cc4ccc(C(C)C)cc4)CC3)C2(C)c2ccccc2)cc1 (centres undefined),"inconclusive: 22.4 µM [cytotoxic, partial curve, poor fit]",–
C=CCn1cc2c3c(cccc31)[C@H](CC(C)C)N[C@H](C(=O)O)C2,–,inactive: 0.762% [at 87.6 µM]
CC(=O)c1ccc(NC(=O)CC2Nc3cc(C)c(C)cc3NC2=O)cc1 (centres undefined),"inconclusive: 39.8 µM [cytotoxic, single point]",–
C[C@@H](NC(=O)C[C@@H]1c2nc(-c3cccnc3)sc2C[C@@H]2[C@](C)(CO)[C@H](O)CC[C@]21C)c1ccccc1,–,inactive: -6.4%
COc1ccc(C(=O)N(Cc2sccc2C)C2CCS(=O)(=O)C2)cc1 (centres undefined),"inconclusive: 6.31 µM [cytotoxic, partial curve, poor fit]",–
O=C1c2c(nc(CNCC3CC3)n2Cc2ccccc2)NCCN1Cc1ccccc1,"inconclusive: 31.6 µM [cytotoxic, partial curve, poor fit]",–
